Here are results for 40 molecules from the antibiotic and cytotoxicity screens of Wong et al. (2023).

This is one part of the list.

For the assay, the system named is HSkMC (human skeletal muscle cells). Briefly: cytotoxicity call (relative viability < 0.9). The settings on record: 10 µM.
Turning to `O=C(C[C@@H]1CC[C@H]2[C@@H](COC[C@H](O)CN2C(=O)c2cnccn2)O1)N1CCN(c2ccccc2)CC1`, the cytotoxicity call is “inactive”.
Consider `C[C@@H]1CN([C@H](C)CO)C(=O)c2cc(NC(=O)CCC(F)(F)F)ccc2O[C@@H](C)CCCCO[C@@H]1CN(C)C(=O)c1ccccc1`, for which the cytotoxicity call was “inactive”.
The value for `COc1ccc(cc1)CN1CC[C@]2(CC1)CN([C@H](CO)c1[nH]c3cc(ccc3c12)OC)C(=O)Nc1ccc(cc1)F` was “inactive”; that for `COc1ccc(CN(C)C[C@H]2OCCCC[C@@H](C)Oc3ccc(NC(=O)Nc4ccc(C(F)(F)F)cc4)cc3C(=O)N([C@H](C)CO)C[C@@H]2C)cc1` was “active”.
Regarding `C[C@H](CO)N1C[C@H](C)[C@H](CN(C)S(=O)(=O)c2ccc(Cl)cc2)Oc2ccc(N(C)C)cc2CC1=O`, the cytotoxicity call was “inactive”.
Turning to `COc1ccc(S(=O)(=O)Nc2cccc3c2O[C@@H](CN(C)S(=O)(=O)c2cccs2)[C@@H](C)CN([C@H](C)CO)C3=O)cc1`, the cytotoxicity call was “inactive”.
For `C[C@H]1CN([C@@H](C)CO)C(=O)Cc2cc(NC(=O)Nc3ccccc3)ccc2O[C@H]1CN(C)S(=O)(=O)c1cn(C)cn1`, the cytotoxicity call was “inactive”.
Take `COc1ccc(NC(=O)Nc2ccc3c(c2)CC(=O)N([C@H](C)CO)C[C@@H](C)[C@@H](CN(C)Cc2ccc(C(F)(F)F)cc2)O3)cc1`: the cytotoxicity call is “active”.
Turning to `C[C@H]1CN([C@@H](C)CO)C(=O)c2cccc(NS(=O)(=O)c3cn(C)cn3)c2O[C@@H]1CN(C)CC1CC1`, the cytotoxicity call was “inactive”.
The value for `C[C@@H]1CN([C@H](C)CO)C(=O)Cc2cc(NC(=O)CCN3CCOCC3)ccc2O[C@@H]1CN(C)CC1CC1` was “inactive”; that for `COC(=O)C(CC#Cc1ccc2c(c1)[C@]1(C(=O)N2)[C@H](c2ccc(O)cc2)N2[C@H](c3ccccc3)[C@H](c3ccccc3)OC(=O)[C@H]2[C@@H]1C(=O)N1CCc2cc(OC)c(OC)cc2C1)C(=O)OC` was “inactive”.
As for `COc1cc(C(=O)O)cc(OC)c1O`, the cytotoxicity call is “inactive”.
`C[C@@H]1CN([C@H](C)CO)C(=O)c2cccc(NS(=O)(=O)c3cn(C)cn3)c2O[C@@H]1CN(C)S(=O)(=O)c1cccs1`: the cytotoxicity call was “inactive”.
The value for `C[C@H](CO)N1C[C@H](C)[C@H](CN(C)CC2CCCCC2)Oc2ccc(NS(=O)(=O)c3cn(C)cn3)cc2C1=O` was “inactive”; that for `C[C@@H]1CCCCO[C@H](CN(C)C(=O)c2ccccc2)[C@@H](C)CN([C@H](C)CO)C(=O)c2cc(NS(=O)(=O)c3ccc(Cl)cc3)ccc2O1` was “inactive”.
The value for `C[C@@H]1CN([C@H](C)CO)C(=O)c2c(c3ccccc3n2C)-c2ccccc2CO[C@@H]1CN(C)Cc1cccc(C(=O)O)c1` was “inactive”; that for `O=C(C[C@H]1C[C@@H]2c3cc(NC(=O)NC4CCCC4)ccc3O[C@@H]2[C@H](CO)O1)NCc1ccc2c(c1)OCO2` was “inactive”.
On to `C[C@@H]1CCCCO[C@@H](CN(C)C(=O)c2ccccc2)[C@@H](C)CN([C@H](C)CO)C(=O)c2cc(NC(=O)Nc3cccc4ccccc34)ccc2O1`, for which the cytotoxicity call is “inactive”.
The value for `C[C@H](CO)N1C[C@H](C)[C@H](CN(C)S(C)(=O)=O)Oc2c(NS(=O)(=O)c3ccccc3)cccc2C1=O` was “inactive”.
On to `COc1cc(C2Oc3cc(C4Oc5cc(O)cc(O)c5C(=O)C4O)ccc3OC2CO)ccc1O` (stereo not given), for which the cytotoxicity call is “inactive”.
The value for `COc1ccc(-c2cnc3c(c2)C(=O)N([C@H](C)CO)C[C@H](C)[C@H](CN(C)S(=O)(=O)c2cccs2)O3)cc1` was “inactive”.
In the case of `C[C@H](CO)N1C[C@H](C)[C@@H](CN(C)C(=O)Nc2ccc3c(c2)OCO3)Oc2ccc(NC(=O)Cn3cnnn3)cc2CC1=O`, the cytotoxicity call is “inactive”.
On to `COc1ccc(S(=O)(=O)N(C)C[C@@H]2OCCCC[C@H](C)Oc3ccc(NC(=O)Nc4cccc5ccccc45)cc3C(=O)N([C@@H](C)CO)C[C@H]2C)cc1`, for which the cytotoxicity call was “inactive”.
Under `C[C@@H]1CN([C@@H](C)CO)C(=O)c2cc(NC(=O)c3ccccc3)ccc2O[C@@H](C)CCCCO[C@H]1CN(C)Cc1ccccc1` stands “inactive”; under `COc1ccc(S(=O)(=O)N(C)C[C@@H]2OCCCC[C@@H](C)Oc3ccc(NS(=O)(=O)c4cn(C)cn4)cc3C(=O)N([C@@H](C)CO)C[C@H]2C)cc1`, “inactive”; under `Cc1ccc(S(=O)(=O)N(C)C[C@H]2Oc3ccc(NC(=O)Nc4ccc(C(F)(F)F)cc4)cc3C(=O)N([C@H](C)CO)C[C@@H]2C)cc1`, “inactive”.
Regarding `Cc1cc(C(=O)Nc2cccc3c2O[C@@H](CN(C)S(=O)(=O)c2cccs2)[C@@H](C)CN([C@H](C)CO)C3=O)n(C)n1`, the cytotoxicity call is “inactive”.
For the molecule `C[C@@H]1CN([C@H](C)CO)C(=O)c2cc(NC(=O)Cc3ccccc3)ccc2O[C@@H](C)CCCCO[C@H]1CN(C)C(=O)Nc1ccc2c(c1)OCO2`, the cytotoxicity call was “inactive”.
On to `COc1ccc(S(=O)(=O)N(C)C[C@H]2Oc3ccc(NC(=O)CCN4CCOCC4)cc3CC(=O)N([C@H](C)CO)C[C@H]2C)cc1`, for which the cytotoxicity call is “inactive”.
The value for `COc1ccccc1-c1ccc2c(c1)O[C@@H](CN(C)C(=O)c1cccnc1)[C@@H](C)CN([C@H](C)CO)S2(=O)=O` was “inactive”; that for `CC1(C)OC2CC3C4CC(F)C5=CC(=O)C=CC5(C)C4(F)C(O)CC3(C)C2(C(=O)CO)O1` (stereo not given) was “inactive”; that for `Cc1noc(C)c1S(=O)(=O)N(C)C[C@@H]1Oc2ccc(NC(=O)Cn3cnnn3)cc2CC(=O)N([C@H](C)CO)C[C@H]1C` was “inactive”.
For the molecule `O=C(O)C[C@H]1Nc2ccccc2NC1=O`, the cytotoxicity call is “inactive”.
Turning to `C[C@H](CO)N1C[C@H](C)[C@H](CN(C)C(=O)c2ccccc2)OCCCC[C@H](C)Oc2ccc(NC(=O)C3CCCCC3)cc2C1=O`, the cytotoxicity call was “inactive”.
Consider `C[C@@H]1CCCCO[C@@H](CN(C)Cc2ccccc2)[C@H](C)CN([C@H](C)CO)C(=O)c2cc(NC(=O)CCC(F)(F)F)ccc2O1`, for which the cytotoxicity call is “inactive”.
`C[C@@H]1CN([C@H](C)CO)C(=O)c2cc(NC(=O)C3CC3)ccc2O[C@@H]1CN(C)Cc1ccc(C(=O)O)cc1`: the cytotoxicity call was “inactive”.
The value for `C[C@@H]1CCCCO[C@@H](CN(C)C(=O)Nc2ccc(F)cc2)[C@@H](C)CN([C@H](C)CO)C(=O)c2cc(NC(=O)Nc3ccc(F)cc3)ccc2O1` was “inactive”.
For the molecule `COc1cccc(S(=O)(=O)N[C@H]2CC[C@H](CC(=O)NC3CCC3)O[C@@H]2CO)c1`, the cytotoxicity call was “inactive”.
In the case of `O=C(C[C@@H]1CC[C@@H]2[C@H](COC[C@H](O)CN2S(=O)(=O)c2ccccc2)O1)NCc1ccc2c(c1)OCO2`, the cytotoxicity call is “inactive”.
Under `C[C@@H]1CN([C@H](C)CO)C(=O)c2cc(NC(=O)Nc3ccc(C(F)(F)F)cc3)ccc2O[C@@H](C)CCCCO[C@@H]1CN(C)C(=O)CCCN(C)C` stands “inactive”.
